112 compounds from PubChem BioAssay AID488969 (Vanderbilt High Throughput Screening Facility, 2010) can be followed below.

The full ranking holds about 110,000 compounds; the median of “z-score” is about -0.1, and the highest 2% start at about 2. The list shows a part of the results. Active and inactive are the calls of the source.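 How the source made its calls: active means z-score in the third read window above 3 or below -3; inactive means the rest.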

In this assay the target is Metabotropic glutamate receptor 8 (Rattus norvegicus) (UniProt P70579). In words: rat mGluR8 modulators via GIRK flux, primary screen, cell-based, thallium flux, HTS (AID 488969). As to conditions: HEK293 rat mGluR8, GIRK (G protein-gated inwardly rectifying potassium channel) thallium flux, FluoZin2; at 10 µM; stronger effect = higher value; submaximal glutamate (EC20) added with thallium.
Chain of UniProt P70579 (P70579 whole entry, looked up): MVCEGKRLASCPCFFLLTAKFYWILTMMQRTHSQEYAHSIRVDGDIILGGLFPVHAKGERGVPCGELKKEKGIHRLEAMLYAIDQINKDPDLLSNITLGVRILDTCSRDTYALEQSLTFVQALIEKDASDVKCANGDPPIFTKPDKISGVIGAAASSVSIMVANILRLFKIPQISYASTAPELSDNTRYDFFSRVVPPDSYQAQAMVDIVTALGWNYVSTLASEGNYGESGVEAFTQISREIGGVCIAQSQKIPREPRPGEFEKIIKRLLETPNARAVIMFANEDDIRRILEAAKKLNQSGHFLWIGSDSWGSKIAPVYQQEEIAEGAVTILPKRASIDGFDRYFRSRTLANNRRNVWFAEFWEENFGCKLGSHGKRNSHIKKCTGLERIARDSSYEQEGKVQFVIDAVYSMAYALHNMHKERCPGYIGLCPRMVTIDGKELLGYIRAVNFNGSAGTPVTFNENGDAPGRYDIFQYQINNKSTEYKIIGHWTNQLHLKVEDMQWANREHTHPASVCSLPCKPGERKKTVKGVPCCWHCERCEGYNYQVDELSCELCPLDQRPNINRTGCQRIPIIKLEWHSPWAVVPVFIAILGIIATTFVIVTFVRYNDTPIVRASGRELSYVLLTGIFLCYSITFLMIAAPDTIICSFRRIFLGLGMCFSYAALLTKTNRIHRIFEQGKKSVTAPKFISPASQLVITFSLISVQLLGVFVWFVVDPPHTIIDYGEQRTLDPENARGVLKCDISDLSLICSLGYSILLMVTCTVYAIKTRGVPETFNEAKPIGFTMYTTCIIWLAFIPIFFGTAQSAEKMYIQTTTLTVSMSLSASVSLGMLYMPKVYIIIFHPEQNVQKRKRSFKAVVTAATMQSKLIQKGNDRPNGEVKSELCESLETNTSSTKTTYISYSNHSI
With `O=C(CCl)Nc1cc(S(=O)(=O)N2CCCCCC2)ccc1Cl`, the z-score is -0.171.

For `COCC(C)n1c(C)cc(C(=O)COC(=O)c2ccc3c(c2)NC(=O)CS3)c1C` (configuration not stated), the z-score is -0.13.

The compound `Cc1ccsc1/C=N/NC(=O)CSCc1ccc(Cl)cc1` showed a z-score of 1.84.

Compound `O=C(COc1ccccc1)N/N=C/c1cc2c(cc1[N+](=O)[O-])OCO2` yielded a z-score of -0.205.

`Cc1cc(=O)oc2cc(OCC(=O)N3CCc4ccccc4C3)ccc12` had a z-score of 0.0165.

Regarding `Cc1cccc(OCC(=O)N/N=C\C=C\c2ccc3c(c2)OCO3)c1C`, the z-score is -0.127.

With `O=C1Nc2ccccc2C12OCCCO2`, the z-score stood at 0.489.

`Cc1cccc(N2CCN(C(=O)c3cc4c(=O)n(C)c5ccccc5c4n3C)CC2)c1C` had a z-score of -0.508.

`Cc1sc2ncnc(NCC3CCCO3)c2c1C` (configuration not stated) yielded a z-score of -0.159.

In turn, `COc1ccc(Br)cc1S(=O)(=O)N1CCN=C1C` came in with a z-score of -1.32.

Compound `O=C(Nc1ccccc1)C1CCCN(S(=O)(=O)c2ccc(-n3cnnn3)cc2)C1` (configuration not stated) registered a z-score of 0.136.

Turning to `COC(=O)c1scc(C)c1N/N=C(\C)c1ccc(F)cc1`, the z-score was -0.0161.

`CCOC(=O)c1c(C)[nH]c(O)c1C=Nc1ccccc1` showed a z-score of -0.648.

For the compound `O=C(CN(CC1CCCO1)S(=O)(=O)c1ccc(S(=O)(=O)NCC2CCCO2)cc1)Nc1ccccc1` (configuration not stated), the z-score was 0.361.

Consider `CC(C)Sc1nnc([C@H](Cc2c[nH]c3ccccc23)NC(=O)OC(C)(C)C)o1`, for which the z-score is -0.0825.

`Cc1ccc(NC(=O)C(=O)c2c(-c3ccccc3)cc3ccccn23)cc1S(=O)(=O)N1CCOCC1` registered a z-score of -0.619.

`CC(C)CC(=O)c1c[nH]c(C(=O)NCCCn2ccnc2)c1` came in with a z-score of 0.0582.

As to `O=C(COc1ccc(Cl)cc1)OCC(=O)N1CCCCCC1`, the z-score was -1.1.

Consider `O=C(CSc1cc([N+](=O)[O-])cc(S(=O)(=O)Cc2ccccc2)c1)NC1CC1`, for which the z-score was -0.31.

Regarding `Cn1cc(/C=C2\SC(=S)N(NC(=O)c3ccccc3Cl)C2=O)c2ccccc21`, the z-score is -0.389.

In turn, `CCOC(=O)C1CCCC(NS(=O)(=O)c2ccc(NC(C)=O)cc2)C1` (configuration not stated) had a z-score of -0.169.

On to `COc1ccc(NC(=O)NCc2ccncc2)c(OC)c1`, for which the z-score is -0.842.

`Cc1cccn2c(=O)c(/C=C(\C#N)C(=O)NC3CCS(=O)(=O)C3)c(N3CCC(C(N)=O)CC3)nc12` (configuration not stated) yielded a z-score of -0.802.

Compound `CCn1c(CNC(=O)c2ccc3c(c2)OCO3)nnc1SCC(=O)Nc1cc(C)ccc1OC` had a z-score of -0.48.

With `NC(=O)C1CCN(CC(=O)Nc2ccccn2)CC1`, the z-score worked out at 0.329.

Turning to `Cc1ccc(C(=O)ONc2ccc(N=NC(=O)c3ccccc3O)cc2)cc1`, the z-score is 1.17.

`O=C(COc1ccc(Br)cc1Cl)NC(=S)N1CCc2ccccc21` yielded a z-score of 2.28.

`O=C(NCc1n[nH]c(=S)n1-c1ccccc1)c1ccco1` yielded a z-score of 0.53.

Regarding `CCCCc1c(O)n2c(nc3ccccc32)[nH]c1=O`, the z-score was -0.934.

As to `Cc1cccc(C(=O)NC2CC3CCCC(C2)N3C(=O)NC2CCCCC2)c1` (configuration not stated), the z-score turned out to be 0.405.

The compound `S=c1[nH]nc([C@@H]2C[C@H]2c2ccccc2)n1-c1ccccc1` yielded a z-score of -0.292.

`C=CCNC(=O)c1ccc(Cn2c(=S)[nH]c3cc4c(cc3c2=O)OCO4)cc1` came in with a z-score of 0.00824.

In the case of `COC(=O)/C=C/c1ccc(OC(=O)OC)c(OC(=O)OC)c1`, the z-score is -0.0752.

As for `CC(=NCc1ccc2c(c1)OCO2)C1=C(O)c2ccccc2C1=O`, the z-score was -0.0533.

Take `CCC1(CC)C(=O)NC(=O)NC1=NCCc1c[nH]c2ccccc12`: the z-score is 0.00649.

Compound `COc1ccc(CCNC(=O)CN(c2ccccc2OC)S(C)(=O)=O)cc1OC` had a z-score of 1.13.

As to `Cc1[nH]n(-c2ccc(Br)cc2)c(=O)c1C=Nc1ccc(S(=O)(=O)Nc2nccs2)cc1`, the z-score is -0.653.

Take `O=C(c1ccco1)N1CCN(C(c2cccs2)c2nnnn2C2CCCCC2)CC1` (configuration not stated): the z-score is -0.151.

`CCOc1ccccc1N1CCN(S(=O)(=O)c2ccc(Cl)s2)CC1` gave a z-score of -0.553.

In the case of `COC(=O)c1c(N)sc(C(C)=O)c1C`, the z-score is 1.78.

Take `O=C(NCCC1=CCCCC1)c1cnc2n(c1=O)CCS2`: the z-score is -0.139.

Compound `C=CCN1C(=O)C(CC(=O)Nc2ccccc2)SC1=Nc1c(C)n(C)n(-c2ccccc2)c1=O` (configuration not stated) showed a z-score of 1.07.

Turning to `CCOc1ccc2nc(SCC(=O)N3CCCCCC3)c(C#N)cc2c1`, the z-score came out at 0.241.

Consider `COc1ccc(N2CCN(c3ncnc4c3cnn4-c3ccc(C)cc3C)CC2)cc1`, for which the z-score was -0.495.

Take `COc1ccc(C(=O)NCCSc2ccc(C)cc2)cc1`: the z-score was -0.404.

In the case of `O=C(NCCN1CCOCC1)c1cc(-c2cccs2)on1`, the z-score was -1.2.

On to `Cc1ccc(C(OC(=O)c2ccco2)C(=O)NC2CCCCC2)cc1` (configuration not stated), for which the z-score was 1.4.

In the case of `COc1ccccc1NC(=O)c1ccc(NC(=O)COC(=O)CC(NC(=O)c2ccccc2Cl)c2ccccc2)cc1` (configuration not stated), the z-score is -0.112.

Turning to `COc1ccccc1N1CCN(C(=O)CCNS(=O)(=O)c2ccc(Br)s2)CC1`, the z-score was -0.0521.

As for `NC(=O)c1ccc[n+](Cc2ccccc2)c1`, the z-score was -0.151.

On to `C=CCn1cc(-c2cccc(Cl)c2)cc(C#N)c1=O`, for which the z-score is -0.221.

`O=C(Nc1ccc2c(c1)nc1n2CCOC1)C1CCCCC1` yielded a z-score of 0.0939.

The compound `CCN(CC)CCNc1ccc(Cl)cc1[N+](=O)[O-]` showed a z-score of 0.418.

For the compound `COc1ccccc1NC(=O)c1cc2n(n1)C(C(F)(F)F)CC(c1ccc3c(c1)OCO3)N2` (configuration not stated), the z-score was -0.0221.

In the case of `Cc1nn(-c2ccc(F)cc2)c(Cl)c1/C=C1\C(=O)Nc2ccccc21`, the z-score was -0.367.

For `Cc1nn(C(C)c2nc(-c3ccccc3)no2)c(C)c1[N+](=O)[O-]` (configuration not stated), the z-score is -0.432.

`Cc1cc(Cl)c(S(N)(=O)=O)cc1OCC(N)=O` gave a z-score of 0.0973.

`Cc1ccc(-c2nn(-c3cc(Cl)ccc3[N+](=O)[O-])c(=O)c3ccccc23)cc1` gave a z-score of -0.423.

Regarding `Cc1ccc(C)n1-c1nc(=S)[nH][nH]1`, the z-score was -0.129.

The compound `O=C(NC1CCCCC1)C1CC(=O)N(c2ccc(Cl)cc2)C1` (configuration not stated) yielded a z-score of -0.558.

`COc1ccc(C(=O)N/N=C/C(C)c2ccccc2)cc1OC` (configuration not stated): the z-score is -0.491.

In turn, `Cc1ccccc1Nc1cc(=O)oc2ccccc12` returned a z-score of -0.248.

Consider `COc1ccc(CCNC(=O)/C(=C/c2cccnc2)NC(=O)c2ccccc2)cc1`, for which the z-score was -0.177.

`N#Cc1cc2c(nc1Cl)CCCC2` displayed a z-score of 0.0855.

The compound `O=C(Nc1cc(S(=O)(=O)N2CCOCC2)ccc1O)c1ccco1` yielded a z-score of -0.157.

Compound `CCSc1cc(C2C(C(=O)OC)=C(C)NC3=C2C(=O)CCC3)c(C)o1` (configuration not stated) returned a z-score of -0.493.

`O=C(Nc1cnn(Cc2ccc(F)cc2)c1)c1cnccn1`: the z-score amounted to 0.166.

As for `O=C(NN1C(=O)C2C3C=CC(O3)C2C1=O)c1cccc(O)c1` (configuration not stated), the z-score stood at 0.0539.

As for `Cc1ccc(NC(=O)c2c([N+](=O)[O-])c(C(C)(C)C)nn2C)c(C)c1`, the z-score is -0.094.

Compound `COc1ccc(Br)cc1/C=C/C(=O)c1ccc(NC(C)=O)cc1` showed a z-score of -0.385.

`COc1cccc(-c2cc(C(=O)O)[nH]n2)c1` came in with a z-score of 0.00896.

Consider `CCC1CCC(c2nnc(-c3ccc(Br)cc3)o2)CC1` (configuration not stated), for which the z-score was -1.29.

Turning to `CCN(CC)CCOc1c(Br)ccc2c1sc1nc3n(c(=O)c12)CCC3`, the z-score came to 0.601.

`Cc1cccc(/C=N/NC(=O)NC2CCCCC2)c1` yielded a z-score of -0.122.

Compound `COc1ccccc1OCCNC(=O)c1ccc(S(=O)(=O)N(C)C)cc1` registered a z-score of 0.0014.

As for `CCOC(=O)N1CCN(c2nc(-c3ccc(F)cc3)cs2)CC1`, the z-score is -0.404.

As to `Fc1ccc(C(CCCn2nnc(-c3cccnc3)n2)c2ccc(F)cc2)cc1`, the z-score is 1.

As for `O=C(CC1SC(=O)N(Cc2cccc3ccccc23)C1=O)Nc1nccs1` (configuration not stated), the z-score was -0.096.

`Oc1ccc(CNc2ccccc2)c2cccnc12` yielded a z-score of 0.0879.

`Cc1cc(CSc2ccccc2)ccc1NC(=O)COc1ccccc1` returned a z-score of 0.0643.

Consider `Cc1cc(C)nc(N2CCC(C(=O)NCc3ccccc3)CC2)n1`, for which the z-score is -0.292.

`COc1cc(S(=O)(=O)Nc2cccc(C)c2)ccc1NC(=O)c1ccncc1` returned a z-score of 0.196.

`COc1cccc(-c2nnc3n2N=C(C(C)(C)C)CS3)c1` registered a z-score of -0.615.

`O=C(Nc1nnc(-c2ccccc2)o1)C1CCCCC1` showed a z-score of 0.0922.

The compound `CCNC(=O)C12CCC(C)(C(=O)C1Br)C2(C)C` (configuration not stated) yielded a z-score of -0.13.

Regarding `CCOC(=O)Cc1csc(NC(=O)Nc2ccccc2)n1`, the z-score is active: 3.05.

With `O=C(CN1C(=O)c2ccccc2S1(=O)=O)N1CCc2ccccc2C1`, the z-score was -0.0825.

In turn, `Cc1nn(Cc2ccccc2)c(N)c1C#N` displayed a z-score of -0.0342.

The compound `C/C(Cn1nnc([N+](=O)[O-])n1)=N\NC(=O)c1ccc(Cl)c(Cl)c1` returned a z-score of 0.223.

As for `CC(C)C(=O)Nc1nnc(Sc2ccc(N(C)C)cc2)s1`, the z-score is -0.137.

`NNc1nc2ccc(Cl)cc2s1`: the z-score was -0.169.

On to `O=C(CN1CCOCC1)Nc1ccc(-c2nc3ccccc3[nH]2)cc1`, for which the z-score was -0.309.

For `CCCCCc1nnc(NS(C)(=O)=O)s1`, the z-score was -0.0105.

In turn, `CCC1Oc2ccccc2N(CC(=O)NCCc2ccc(OC)c(OC)c2)C1=O` (configuration not stated) displayed a z-score of -0.997.

The compound `CCOc1ccc(NCC(=O)N/N=C/C=C/c2ccccc2)cc1` registered a z-score of -0.235.

`O=C(c1cc2ncc(Br)cn2n1)N1CCN(C(=O)c2ccco2)CC1` yielded a z-score of 0.428.

In turn, `NNc1nc(-c2ccccc2)nc2sc3c(c12)CCCC3` gave a z-score of -0.194.

With `Cc1nnc(NC(=O)CSc2cn(CCNC(=O)c3ccccc3)c3ccccc23)s1`, the z-score was -0.0495.

`COc1cc2c(cc1OC)CN(C(=O)COc1ccc(C#N)cc1)CC2`: the z-score is 0.0723.

`COc1ccccc1/C=C/C=N/NC(=O)Cc1cccn1C` gave a z-score of -0.14.

In the case of `Cc1ccc2[nH]c(=O)c(C(c3nnnn3C(C)(C)C)N(Cc3ccco3)CC3CCCO3)cc2c1` (configuration not stated), the z-score was -0.11.

For the compound `COc1cccc(C(=O)N2CCN(C(=O)c3cccs3)CC2)c1OC`, the z-score was -0.02.

In turn, `COC(=O)c1sccc1NC(=O)CSc1cccc(Cl)c1Cl` displayed a z-score of -0.0544.

As to `CCn1c(O)c(/C=N/N=C/c2ccccc2)c2ccc(C3=NNC(=O)CC3)cc21`, the z-score is -0.86.

Compound `Cc1ccc(OCC(=O)OCC(=O)c2c(N)n(C)c(=O)n(C)c2=O)cc1C` came in with a z-score of -0.0815.

For `CCCCN(CC)Cc1ccc(CNC(=O)Nc2ccc(F)cc2)o1`, the z-score was found to be 0.401.

Take `Nc1cccnc1Sc1cccc(Cl)c1`: the z-score was 0.183.

`COc1ccc(OC)c(NC(=O)Nc2ccc(Cl)cc2)c1` displayed a z-score of 0.245.

Compound `Cc1ccc(C(=O)Nc2cnc3sc(C)nn3c2=O)cc1` came in with a z-score of 0.366.

`Cc1ccc2nc(NC(=O)c3ccc4c(c3)OCO4)sc2c1` came in with a z-score of -0.0885.

In the case of `CCOC(=O)C1=C(C)NC2=C(C(=O)CCC2)C1c1ccc(O)c(OCC)c1` (configuration not stated), the z-score worked out at 0.423.

Compound `Cc1cc(C)c(C#N)c(SCC(=O)N2CCCCC2)n1` had a z-score of -0.063.
